What was measured:
[1] = molecular target: Human Notch3-Gal4-VP16 (human); experiment: cell-based or functional assay
[2] = molecular target: T1, cyno LBD; experiment: ELISA: IgG titrated on directly coated recombinant antigen
T1 construct: also called N3_EGF4-11_Fc cyno

[3] = molecular target: T1, cyno LBD; experiment: Biacore (SPR); set-up not stated on the sheet

| Binder | % inhibition, Delta 1 co-culture Notch3 reporter gene assay [1] [%] | % inhibition, Jagged1 co-culture Notch3 reporter gene assay [1] [%] | IC50, Delta 1 co-culture Notch3 reporter gene assay [1] [nM] | IC50, Jagged1 co-culture Notch3 reporter gene assay [1] [nM] | EC50 [2] [nM] | Kd [3] [nM] |
| --- | --- | --- | --- | --- | --- | --- |
| 20364 (antibody, human IgG1, lambda) heavy: QVQLVESGGGLVKPGGSLRLSCAASGFTFSSYTMNWVRQAPGKGLEWVGRVKGEQFGGSIHYAASVKGRFTISRDDSKNTLYLQMNSLKTEDTAVYYCARERSRAGSIFDPWGQGTLVTVSSASTKGPSVFPLAPSSKSTSGGTAALGCLVKDYFPEPVTVSWNSGALTSGVHTFPAVLQSSGLYSLSSVVTVPSSSLGTQTYICNVNHKPSNTKVDKRV[human IgG1 Fc not shown] light: DIVLTQPPSVSGAPGQRVTISCSGSSSNIGFNYVSWYQQLPGTAPKLLIYYNNQRPSGVPDRFSGSKSGTSASLAITGLQAEDEADYYCSTWTGTSESHVFGGGTKLTVLGQPKAAPSVTLFPPSSEELQANKATLVCLISDFYPGAVTVAWKADSSPVKAGVETTTPSKQSNNKYAASSYLSLTPEQWKSHRSYSCQVTHEGSTVEKTVAPTECS | 91 | 72 | 1.8 | 2 | 1.5 | 0.1 |
| 20802 (antibody, human IgG1, lambda) heavy: QVQLVESGGGLVKPGGSLRLSCAASGFTFSSYTMNWVRQAPGKGLEWVGRVKGEQFGGSIHYAASVKGRFTISRDDSKNTLYLQMNSLKTEDTAVYYCARERSRAGSIFDPWGQGTLVTVSSASTKGPSVFPLAPSSKSTSGGTAALGCLVKDYFPEPVTVSWNSGALTSGVHTFPAVLQSSGLYSLSSVVTVPSSSLGTQTYICNVNHKPSNTKVDKRV[human IgG1 Fc not shown] light: QSVLTQPPSVSGAPGQRVTISCSGSSSNIGFNYVSWYQQLPGTAPKLLIYYNNQRPSGVPDRFSGSKSGTSASLAITGLQAEDEADYYCSTWTGTSESHVFGGGTKLTVLGQPKAAPSVTLFPPSSEELQANKATLVCLISDFYPGAVTVAWKADSSPVKAGVETTTPSKQSNNKYAASSYLSLTPEQWKSHRSYSCQVTHEGSTVEKTVAPTECS | 93 | 70 | 3.9 | 2.1 | 0.7 | – |
